Molecules are shown by their SMILES. Hit rate of the full screen: of about 310,000 compounds, about 2,200 (0.71%) showed an effect of 50% or more. Effects have a minus sign here. The list shows a part of the results.

The source of these data is article PMC4336329 (PLoS ONE, 2015).

The assay deals with human ether-à-go-go-related gene (hERG) potassium channel (human, UniProt Q12809). As to the kind of experiment: primary screen, population patch clamp on CHO cells stably expressing hERG.
Sequence of human ether-à-go-go-related gene (hERG) potassium channel (Q12809 whole entry, looked up): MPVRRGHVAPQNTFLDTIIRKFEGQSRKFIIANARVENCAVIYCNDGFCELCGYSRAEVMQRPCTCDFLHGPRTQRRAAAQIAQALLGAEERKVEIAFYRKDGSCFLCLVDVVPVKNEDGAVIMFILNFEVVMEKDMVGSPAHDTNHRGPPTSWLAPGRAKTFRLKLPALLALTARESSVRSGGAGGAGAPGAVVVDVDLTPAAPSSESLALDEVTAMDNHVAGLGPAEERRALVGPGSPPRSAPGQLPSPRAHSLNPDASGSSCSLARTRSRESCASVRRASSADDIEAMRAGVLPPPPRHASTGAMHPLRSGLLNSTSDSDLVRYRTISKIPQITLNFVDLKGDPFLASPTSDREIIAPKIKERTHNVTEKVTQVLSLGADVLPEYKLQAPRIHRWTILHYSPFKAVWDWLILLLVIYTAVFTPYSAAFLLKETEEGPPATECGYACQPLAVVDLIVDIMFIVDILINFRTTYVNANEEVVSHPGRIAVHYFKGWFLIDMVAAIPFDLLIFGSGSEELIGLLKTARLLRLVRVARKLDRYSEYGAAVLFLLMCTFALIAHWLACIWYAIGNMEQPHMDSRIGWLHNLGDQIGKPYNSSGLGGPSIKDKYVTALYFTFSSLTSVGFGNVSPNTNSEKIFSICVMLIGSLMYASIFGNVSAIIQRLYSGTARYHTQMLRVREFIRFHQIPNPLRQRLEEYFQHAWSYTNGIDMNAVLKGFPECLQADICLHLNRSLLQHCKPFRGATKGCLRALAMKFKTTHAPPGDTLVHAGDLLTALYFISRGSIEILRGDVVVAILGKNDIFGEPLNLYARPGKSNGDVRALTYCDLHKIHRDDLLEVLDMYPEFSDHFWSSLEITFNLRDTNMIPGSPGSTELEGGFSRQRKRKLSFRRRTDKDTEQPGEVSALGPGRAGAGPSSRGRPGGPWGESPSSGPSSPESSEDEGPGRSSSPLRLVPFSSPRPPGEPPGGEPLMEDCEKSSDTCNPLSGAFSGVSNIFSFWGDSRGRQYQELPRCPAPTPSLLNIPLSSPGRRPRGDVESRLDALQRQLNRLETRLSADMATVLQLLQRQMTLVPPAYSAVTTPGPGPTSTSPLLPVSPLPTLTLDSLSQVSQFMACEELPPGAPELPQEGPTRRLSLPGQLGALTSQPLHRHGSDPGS
With `CCN(CC)S(=O)(=O)c1ccc(C(=O)NCc2n[nH]c(=S)n2-c2ccccc2OC)cc1`, the “hERG current change (%, negative = inhibition) at 1uM” value is 16.1%.
Take `Cc1ccc(NC(=O)CCC(=O)OCc2ccc(Br)cc2)cc1`: the “hERG current change (%, negative = inhibition) at 1uM” value is on record as 11.5%.
The value for `Cc1cc(Cl)c2oc(C(=O)N3CCCCC3CCN3CCCC3=O)c(C)c2c1` (centres unmarked) was 7.63%; that for `CNC(=O)c1c[nH]c2ccc(S(=O)(=O)Nc3cccc(SC)c3)cc2c1=O` was 13.7%; that for `CC(C)c1ccc(S(=O)(=O)c2nnn3c2nc(N2CCCCC2)c2ccccc23)cc1` was 12.3%.
For `Nc1cnc(CNc2ccccc2Cl)cn1`, the “hERG current change (%, negative = inhibition) at 1uM” value amounted to 14%.
For the molecule `CCOc1ccc(C(=O)NCc2ccccc2OC)cc1`, the “hERG current change (%, negative = inhibition) at 1uM” value is given as 7.6%.
As for `COCCCNC(=O)Cn1nnc(-c2ccccc2NC(=O)c2ccccc2F)n1`, the “hERG current change (%, negative = inhibition) at 1uM” value is -5.11%.
As for `Cc1ccc(CN2CCNC(=O)C2CC(=O)N(C)C(C2CC2)C2CC2)o1` (centres unmarked), the “hERG current change (%, negative = inhibition) at 1uM” value was -3.85%.
The value for `CN1CCN(C(=O)c2ccccc2-c2nc(-c3ccc(Cl)cc3)no2)CC1` was -44.5%.
The value for `Clc1ccc(C2=CSC3=NCCN23)c(Cl)c1.[Br-]` was -24.4%; that for `COc1ccc(CNC(=O)C2CCN(S(=O)(=O)c3ccc4c(c3)NC(=O)CO4)CC2)cc1` was 8.22%.
In the case of `CCc1ccc(-c2nc(CS(=O)CC(=O)NCc3ccco3)c(C)o2)cc1` (centres unmarked), the “hERG current change (%, negative = inhibition) at 1uM” value stood at 4.83%.
The value for `C=CCn1c(O)c(N=NC(=S)Nc2ccc(OC)cc2)c2ccccc21` was 4.69%; that for `O=C(OC(C(=O)O)C(OC(=O)c1ccccc1)C(=O)NCc1ccccc1)c1ccccc1` (centres unmarked) was 8.21%.
The value for `Cc1ccccc1NC(=S)N/N=C1\CC(C)(C)Oc2ccc(O)cc21` was 13.4%; that for `CC(=O)Nc1ccccc1NC(=O)c1ccc(C)cc1C` was 18.3%.
With `COc1ccc(C2=C(C)C(N3CCN(C(=O)c4ccco4)CC3)=NS2(=O)=O)cc1` the figure was 3.01%; with `CCCCNC(=O)CCc1c(C)nc2nc(-c3cc(OC)cc(OC)c3)nn2c1C`, 8.34%.
For `CC(C)NC(=O)COC(=O)c1cccc(NS(=O)(=O)/C=C/c2ccccc2)c1`, the “hERG current change (%, negative = inhibition) at 1uM” value came to 1.59%.
With `O=c1[nH]c(-c2ccccc2F)nc2c1sc(=S)n2Cc1ccccc1`, the “hERG current change (%, negative = inhibition) at 1uM” value was 13.7%.
In the case of `Cc1nn(-c2ccccc2)c(NC(=O)c2cccs2)c(-c2ccccc2Cl)c1=O`, the “hERG current change (%, negative = inhibition) at 1uM” value is 9.23%.
On to `COc1ccc(C(C#N)N2CCC(c3ccccc3)=N2)cc1` (centres unmarked), for which the “hERG current change (%, negative = inhibition) at 1uM” value is 17.5%.
Regarding `Cc1nn(-c2ccccc2)c(C)c1C(=O)OCC(=O)Nc1ccccc1F`, the “hERG current change (%, negative = inhibition) at 1uM” value worked out at 8.91%.
For the molecule `COc1ccc(CCN(C)c2ccc(S(=O)(=O)N3CCCC3)cn2)cc1OC`, the “hERG current change (%, negative = inhibition) at 1uM” value turned out to be 1.16%.
Take `COC(=O)C1C2CCC(C2)C1C(=O)OCC(=O)c1ccccc1` (centres unmarked): the “hERG current change (%, negative = inhibition) at 1uM” value turned out to be 5.5%.
Turning to `Cc1ccc(N=C(NOCc2ccc(Cl)cc2Cl)c2nonc2N)c(C)c1`, the “hERG current change (%, negative = inhibition) at 1uM” value was 3.28%.
Regarding `N/C(=N\OS(=O)(=O)c1cc(Cl)ccc1Cl)c1ccncc1`, the “hERG current change (%, negative = inhibition) at 1uM” value is -3.14%.
With `C[C@H](NC(=O)N1C[C@H]2C[C@@H](C1)c1cccc(=O)n1C2)C(=O)Nc1ccc(F)c(F)c1`, the “hERG current change (%, negative = inhibition) at 1uM” value is on record as 6.72%.
`COc1cc(CO)c(OC)c([N+](=O)[O-])c1`: the “hERG current change (%, negative = inhibition) at 1uM” value was 16.7%.
In the case of `COc1cccc(C2c3[nH]c4ccccc4c3C[C@H]3C(=O)N(CCCCCO)CC(=O)N23)c1` (some centres unmarked), the “hERG current change (%, negative = inhibition) at 1uM” value was -33%.
With `Cc1ccc2nc(/C(C#N)=C\c3cc(C)n(-c4cccc([N+](=O)[O-])c4)c3C)[nH]c2c1` the figure was 7.16%; with `CN(CC(=O)N1CCCCC1)S(=O)(=O)c1cccc2cccnc12`, -1.06%.
On to `CC(C)(C)c1ccc(NC(=O)c2c(F)cccc2Cl)cc1`, for which the “hERG current change (%, negative = inhibition) at 1uM” value was found to be 0.498%.
`CC1=C(C(N)=O)C(c2ccco2)C(C(N)=O)=C(C)N1`: the “hERG current change (%, negative = inhibition) at 1uM” value amounted to 16.4%.
With `COc1ccc(C(=O)COC(=O)C(C)N2C(=O)C3C4CCC(C4)C3C2=O)cc1` (centres unmarked), the “hERG current change (%, negative = inhibition) at 1uM” value is 6.25%.
`COc1ccc([C@@H]2[C@@H]3C(=O)N(C(C)(C)C)C(=O)[C@@H]3[C@]3(C)C(=O)N(c4cccc(F)c4)C(=O)N23)cc1`: the “hERG current change (%, negative = inhibition) at 1uM” value came to 10%.
Turning to `COCCCNC(=O)c1ccc(N2CCCC2)c(NS(=O)(=O)c2ccc(C)cc2)c1`, the “hERG current change (%, negative = inhibition) at 1uM” value is 0.617%.
In the case of `CCOc1ccccc1CN1CCCC(C(=O)c2cc(F)ccc2F)C1` (centres unmarked), the “hERG current change (%, negative = inhibition) at 1uM” value is on record as -16.6%.
The value for `NS(=O)(=O)c1ccc(CNC(=O)/C=C/c2c(Cl)cccc2Cl)cc1` was 8.52%; that for `O=C(N/N=C/c1ccc(N2CCCCC2)o1)C(O)(c1ccccc1)c1ccccc1` was 12.3%; that for `Cc1ncc([N+](=O)[O-])n1CCOC(=O)C12CC3CC(CC(C3)C1)C2` was 11.6%.
The value for `OCC1CCCN(C(=S)Nc2ccc(OC(F)F)cc2)C1` (centres unmarked) was 6.07%; that for `COc1cc(NS(=O)(=O)c2ccc(NC(=O)c3cccnc3)cc2)ncn1` was 5.26%; that for `CCCCCCCC(=O)N/N=C/c1cccnc1` was -1.71%.
For the molecule `CCc1ccccc1NC(=O)CSc1nnc([C@@H](N)Cc2ccccc2)o1.Cl`, the “hERG current change (%, negative = inhibition) at 1uM” value is recorded as 3.44%.
`O=C(C[N+]1(CC#Cc2ccccc2)CCOCC1)c1ccc(Cl)cc1.[Br-]`: the “hERG current change (%, negative = inhibition) at 1uM” value is reported as -1.59%.
For `COc1ccc(CN2CCN(c3ccccn3)CC2)c(OC)c1`, the “hERG current change (%, negative = inhibition) at 1uM” value was -52%.
Regarding `COc1cccc(N/C(SCc2ccccc2C)=C(/C#N)C(=O)NCc2cccs2)c1`, the “hERG current change (%, negative = inhibition) at 1uM” value was 7.18%.
As for `FC(F)(F)c1cc(-c2cccs2)nc(NCc2ccco2)n1`, the “hERG current change (%, negative = inhibition) at 1uM” value worked out at 11.6%.
As for `COc1cccc(CN2CCNC(=O)C2CC(=O)NCCc2ccccn2)c1` (centres unmarked), the “hERG current change (%, negative = inhibition) at 1uM” value is recorded as 17.1%.
In the case of `CCc1nc2ccc(C(=O)NCCc3ccc(OC)c(OC)c3)cc2nc1CC`, the “hERG current change (%, negative = inhibition) at 1uM” value is 15.7%.
As for `COCCn1c(SCC(=O)N2CC(=O)Nc3ccccc32)nnc1-c1ccoc1C`, the “hERG current change (%, negative = inhibition) at 1uM” value is recorded as 7.41%.
Take `CCC(C)NC(=O)CN(c1cc(C)cc(C)c1)S(=O)(=O)c1c(C)[nH]c(=O)[nH]c1=O` (centres unmarked): the “hERG current change (%, negative = inhibition) at 1uM” value was found to be 0.737%.
Take `COc1ccc(CNC(=O)CNC(=O)c2c(C)nn(C)c2Cl)cc1`: the “hERG current change (%, negative = inhibition) at 1uM” value is given as -2.97%.
On to `COc1ccc(C(=O)C(C)Oc2cccc(NC(=O)c3cccc([N+](=O)[O-])c3)c2)cc1` (centres unmarked), for which the “hERG current change (%, negative = inhibition) at 1uM” value amounted to 7.23%.
Consider `CCOC(=O)Cn1c(O)c(N=NC(=O)OC)c2ccccc21`, for which the “hERG current change (%, negative = inhibition) at 1uM” value was 9.56%.
As to `CCCCCn1c(=O)c(C(=O)NC(C)c2ccccc2)c(O)c2ccccc21` (centres unmarked), the “hERG current change (%, negative = inhibition) at 1uM” value is 12.4%.
Turning to `CCc1noc(C)c1C(=O)Nc1nc(-c2ccccc2)cs1`, the “hERG current change (%, negative = inhibition) at 1uM” value was 7.35%.
Take `CC(=O)c1c(C)[nH]c(C(=O)CN2C(=O)NC(C)(C)C2=O)c1C`: the “hERG current change (%, negative = inhibition) at 1uM” value is recorded as 6.04%.
With `COc1ccc(S(=O)(=O)N2CCC(C(=O)NCCC(=O)NC3CC3)CC2)cc1` the figure was 13%; with `Cc1ccc2nc3n(c(=O)c2c1)CCC3`, 1.93%.
Consider `O=C(O)/C=C/c1ccc(O)cc1`, for which the “hERG current change (%, negative = inhibition) at 1uM” value came out at 0.181%.
The value for `CCOc1ccccc1OCCCC(=O)OCC(=O)Nc1cccc(Cl)c1` was 4.03%; that for `CCOC(=O)Nc1ccc2nc(Sc3ccc(Cl)cc3)sc2c1` was 15.2%; that for `CSc1ccc(CCNC(=O)c2ccc(CS(=O)Cc3ccccc3Cl)o2)cc1` (centres unmarked) was 10.3%.
On to `COc1cc(C(=S)N2CCCCC2)ccc1OCC(=O)N1CCCC1`, for which the “hERG current change (%, negative = inhibition) at 1uM” value was -12.2%.
The value for `O=C(NCC1CCN(Cc2ccccc2F)CC1)C1CCCN(c2ncnc3c2nc2n3CCCCC2)C1` (centres unmarked) was 19.5%; that for `O=C(NC(NC(=S)Nc1ccccc1O)C(Cl)(Cl)Cl)c1ccco1` (centres unmarked) was 3.64%.
Regarding `Cn1c(=O)c2c(SCc3ccccn3)nc(CC(C)(C)C)nc2n(C)c1=O`, the “hERG current change (%, negative = inhibition) at 1uM” value is 9.45%.
For the molecule `NC(=O)C1CCN(C(=O)c2ccc3c(=O)n(Cc4cccc(Br)c4)c(=S)[nH]c3c2)CC1`, the “hERG current change (%, negative = inhibition) at 1uM” value is 6.12%.
For the molecule `Cn1cc(/C=C/c2nc3ccccc3c(=O)n2-c2cccc([N+](=O)[O-])c2)c2ccccc21`, the “hERG current change (%, negative = inhibition) at 1uM” value is on record as -0.779%.
With `COCC(O)CSc1nc(C)[nH]c1[N+](=O)[O-]` (centres unmarked), the “hERG current change (%, negative = inhibition) at 1uM” value was -1.58%.
Regarding `COCc1c(N)c(C)nc(Cl)c1C#N.Cl`, the “hERG current change (%, negative = inhibition) at 1uM” value came to 20.3%.
As for `Cc1[nH]c2ccc(C(=O)OCCN(C)C)cc2c1C`, the “hERG current change (%, negative = inhibition) at 1uM” value was determined as 2.1%.
With `O=C(O)C(=O)O.c1ccc(COc2ccc(OCCCCN3CCCCC3)cc2)cc1`, the “hERG current change (%, negative = inhibition) at 1uM” value is on record as -46.8%.
With `O=C(C1=C[C@H](c2ccc(C(F)(F)F)cc2)C[C@H](OCc2ccc(CO)cc2)O1)N1CCCCCCC1` the figure was 5.66%.
For `CC(OC(=O)c1ccc(Cl)nc1)C(=O)NCc1ccc2c(c1)OCO2` (centres unmarked), the “hERG current change (%, negative = inhibition) at 1uM” value is recorded as -6.96%.
Turning to `O=C(NC1CCSc2ccccc21)c1cccc(S(=O)(=O)N2CCOCC2)c1` (centres unmarked), the “hERG current change (%, negative = inhibition) at 1uM” value worked out at 12.4%.
`Cc1noc(C)c1CSc1nnc(-c2cc(Cl)ccc2Cl)n1N`: the “hERG current change (%, negative = inhibition) at 1uM” value worked out at 13.3%.
For the molecule `CC(C)CC(=O)NC(=S)Nc1ccc(N2CCOCC2)cc1`, the “hERG current change (%, negative = inhibition) at 1uM” value stood at 4.99%.
The value for `Cl.c1ccc(NNC2=NCCCCC2)cc1` was 13.1%.
Regarding `O=C(CSc1cnc2ccccc2n1)NC1CCCC1`, the “hERG current change (%, negative = inhibition) at 1uM” value is listed as 0.651%.
Take `CCOC(=O)N1CCN(S(=O)(=O)c2ccc3c(c2)CC(C)N3C(=O)C2CC2)CC1` (centres unmarked): the “hERG current change (%, negative = inhibition) at 1uM” value was found to be 20.7%.
With `COc1ccccc1C(=O)NC(C)c1ccccc1` (centres unmarked), the “hERG current change (%, negative = inhibition) at 1uM” value was 18.2%.
For the molecule `COc1ccc(S(=O)(=O)Nc2ccc(S(=O)(=O)N(C)C)cc2)cc1[N+](=O)[O-]`, the “hERG current change (%, negative = inhibition) at 1uM” value was 3.83%.
